The campaign covered roughly 390,000 compounds. About 150 (0.038%) were called active. Not shown: some 3% with an inconclusive outcome. Calls come from the whole dose curve; as a rule, active = well fitted inhibition curve with a large enough effect; inconclusive = small, poorly fitted or top-dose-only effect; inactive = no such curve, though single readings can be large or run the other way. The entries are a selection whose mix differs from that of the whole data set.
Each compound was assayed against Regulator of G-protein signaling 4 (Homo sapiens) (UniProt P49798) (assay: Inhibitors of Regulator of G Protein Signaling (RGS) 4: qHTS). Details: Transcreener GDP fluorescence polarization, RGS4-accelerated GTP hydrolysis; series mostly up to 114 µM; activity change, negative = inhibition: at the top concentration.
UniProt P49798, sequence (P49798 whole entry, looked up): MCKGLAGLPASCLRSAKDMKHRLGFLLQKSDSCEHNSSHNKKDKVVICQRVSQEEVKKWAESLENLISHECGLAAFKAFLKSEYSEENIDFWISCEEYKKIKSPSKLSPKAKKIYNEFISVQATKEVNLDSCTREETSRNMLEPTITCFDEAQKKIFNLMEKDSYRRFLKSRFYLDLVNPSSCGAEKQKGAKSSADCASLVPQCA
Procedure, shortened: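 MLSMR compounds (23 nl, pin-transferred) preincubated 10 min at room temperature with a 500nM (2x) first reagent, then RGS4 at 900nM (2x) plus Transcreener GDP mix added; fluorescence polarization (620/688 nm) read before and after 90 min at 30 °C.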
For `OC[C@H]1O[C@@H](O[C@@H]2[C@@H](CO)O[C@@](O)(CO)[C@H]2O)[C@H](O)[C@@H](O)[C@H]1O`, the “activity change, negative = inhibition” value was inactive: 16.4%. `Cc1cccc(C)c1NC(=O)C(NS(=O)(=O)c1cccs1)c1ccccc1` (configuration not stated) was tested, and the “activity change, negative = inhibition” value was inactive: -2.48%. `Oc1ccc(NCc2ccccc2OCc2ccccc2F)cc1` was tested, and the “activity change, negative = inhibition” value was inactive: -40%. `Cc1c(Cl)cccc1NS(=O)(=O)c1ccc(-c2ccc(=O)[nH]n2)o1` was tested, and the “activity change, negative = inhibition” value was inactive: 64.6%. With `CC(=O)OCC(=O)[C@@]1(O)CC[C@H]2[C@@H]3CCC4=CC(=O)CC[C@]4(C)[C@H]3C(=O)C[C@@]21C` the Potency was “inactive”. With `O=C1c2c(O)cc(O)cc2O[C@H](c2ccc(O)c(O)c2)[C@H]1O` the “activity change, negative = inhibition” value was inactive: 1.48%. `COc1cc(OC)c(C(=O)OCC(=O)NC2CCCCCCC2)cc1OC` was tested, and the “activity change, negative = inhibition” value was inactive: 93.4%. With `NC(=O)c1ncn([C@@H]2O[C@H](CO)[C@@H](O)[C@H]2O)c1O` the Potency was “inactive”. `Cc1ccc(C(=O)Nc2ccc(S(=O)(=O)O)c3cc(S(=O)(=O)O)cc(S(=O)(=O)O)c23)cc1NC(=O)c1cccc(NC(=O)Nc2cccc(C(=O)Nc3cc(C(=O)Nc4ccc(S(=O)(=O)O)c5cc(S(=O)(=O)O)cc(S(=O)(=O)O)c45)ccc3C)c2)c1` was tested, and the “activity change, negative = inhibition” value was inactive: 168% [at 56.9 µM]. In the case of `O=c1oc2ccccc2cc1-c1nc2c(s1)CCc1ccccc1-2`, the “activity change, negative = inhibition” value is reported as inactive: -40.8%. With `CC[C@]1(O)CC2CN(CCc3c([nH]c4ccccc34)[C@@](C(=O)OC)(c3cc4c(cc3OC)N(C=O)[C@H]3[C@@](O)(C(=O)OC)[C@H](OC(C)=O)[C@]5(CC)C=CCN6CC[C@]43[C@@H]65)C2)C1` (some centres not stated) the “activity change, negative = inhibition” value was inactive: -0.087%. In the case of `O=C(Nc1cccc2nsnc12)c1cccs1`, the “activity change, negative = inhibition” value is reported as inactive: -9.37%. With `O=C(NCc1cccnc1)/C(=C/c1ccc(-c2cccc(Cl)c2)o1)S(=O)(=O)c1ccccc1` the “activity change, negative = inhibition” value was inactive: -22.1%. For `N#CC(=Cc1ccc(O)cc1)C(N)=C(C#N)C#N`, the “activity change, negative = inhibition” value was inactive: -16.5%. `O=C(O)C1=CCNCC1` was tested, and the “activity change, negative = inhibition” value was inactive: 4%. With `CCOC(=O)[C@@H]1[C@H]2COc3cc(OC)ccc3[C@@H]2N2C(=O)N(c3ccc(C(F)(F)F)cc3)C(=O)[C@@]12C` the “activity change, negative = inhibition” value was inactive: 3.86%. In the case of `O=C1OC[C@H]2CCCN2C(=O)[C@@H](CC(=O)N(CCO)Cc2ccccc2)C/C=C\C[C@@H]1Cc1ccc(F)cc1`, the “activity change, negative = inhibition” value is reported as inactive: -13.9%. In the case of `COc1ccccc1-n1c(SCC(=O)O)nc2c(sc(=S)n2-c2ccccc2C)c1=O`, the “activity change, negative = inhibition” value is reported as inactive: 55.9%. `CC12C=CC(=O)C=C1CCC1C3CCC(O)(C(=O)CO)C3(C)CC3OC312` (configuration not stated) was tested, and the “activity change, negative = inhibition” value was inactive: -24.6%. With `CCC1CCCCN1CCCNC(=O)CCCNC(=O)Cn1cnc2sc3c(c2c1=O)CCCC3` (configuration not stated) the “activity change, negative = inhibition” value was inactive: 70%. For `CC(N)(C(=O)O)c1ccc(C(=O)O)cc1` (configuration not stated), the “activity change, negative = inhibition” value was inactive: 19.2% [at 56.9 µM]. With `CN1CCc2cccc3c2C1Cc1ccc(O)c(O)c1-3` (configuration not stated) the “activity change, negative = inhibition” value was inactive: -52.5%. For `CCC(=O)N[C@@H]1CCc2cccc(OC)c2C1`, the “activity change, negative = inhibition” value was inactive: 468% [at 56.9 µM]. With `Cn1c(=O)c2[nH]c(-c3ccc(S(=O)(=O)O)cc3)nc2n(C)c1=O` the Potency was “inactive”. For `CN(C)CCCSc1ccccc1NC(=O)/C=C\c1ccccc1`, the “activity change, negative = inhibition” value was inactive: -41.5% [at 56.9 µM]. With `CCN(CC)CCCC(C)Nc1c2ccc(Cl)cc2nc2ccc(OC)cc12` (configuration not stated) the Potency was active: 21.2 µM. With `O=C(O)[C@@H]1C[C@@H](C(=O)O)N1` the “activity change, negative = inhibition” value was inactive: 14.3% [at 56.9 µM]. In the case of `CC(C)NCC(O)c1ccc(NS(C)(=O)=O)cc1` (configuration not stated), the Potency is reported as “inactive”. For `Cc1cccc(CCN2CCC(C(=O)c3ccc(NS(C)(=O)=O)cc3)CC2)n1`, the “activity change, negative = inhibition” value was inactive: 161% [at 56.9 µM]. `C#C[C@]1(O)CCC2C3CCC4=Cc5oncc5CC4(C)C3CCC21C` (some centres not stated) was tested, and the “activity change, negative = inhibition” value was inactive: 16%. `Nc1ncnc2c1ncn2C1OC(C(=O)NC2CC2)C(O)C1O` (configuration not stated) was tested, and the “activity change, negative = inhibition” value was inactive: 12.6%. For `CNc1cc(NS(=O)(=O)c2ccc(N)cc2)nc(NC)n1`, the “activity change, negative = inhibition” value was inactive: 13%. In the case of `C[N+](C)(CCCCCC[N+](C)(C)CCCN1C(=O)c2ccccc2C1=O)CCCN1C(=O)c2ccccc2C1=O`, the “activity change, negative = inhibition” value is reported as inactive: 280% [at 56.9 µM]. In the case of `CCN1/C(=C/c2ccc3cc(C)ccc3[n+]2CC)Sc2cc(C)c(C)cc21`, the “activity change, negative = inhibition” value is reported as inactive: -35%. `CCN(CC)CCNC(=O)c1ccc(NC(C)=O)cc1` was tested, and the Potency was “inactive”. `CCC(=O)/C=C1\Sc2ccc(OC)cc2N1CCO` was tested, and the “activity change, negative = inhibition” value was inactive: -39.1%. For `O=C1SC(SC(=Nc2ccccc2)Nc2ccccc2)C(=O)N1c1ccccc1` (configuration not stated), the “activity change, negative = inhibition” value was inactive: -25.9%. With `COCCN(C(=O)CSc1ncccn1)c1c(N)n(Cc2ccccc2)c(=O)[nH]c1=O` the “activity change, negative = inhibition” value was inactive: 60.9%. With `COc1ccc(CC(=O)NCCc2cnc[nH]2)cc1` the “activity change, negative = inhibition” value was inactive: 55%. `NC(C(=O)O)c1cccc(O)c1` (configuration not stated) was tested, and the “activity change, negative = inhibition” value was inactive: 150% [at 56.9 µM]. For `COC(=O)[C@H]1[C@H]2C[C@@H]3c4[nH]c5cc(OC)ccc5c4CCN3C[C@H]2C[C@@H](OC(=O)c2cc(OC)c(OC)c(OC)c2)[C@@H]1OC`, the “activity change, negative = inhibition” value was inactive: -29.6%. With `CCn1c(SCC(=O)N2CCN(c3ccc(Cl)cc3)CC2)nc2ccccc2c1=O` the “activity change, negative = inhibition” value was inactive: 0.958%. For `CCCCOc1ccc(/C=C/C2=CC(C)(C)NC(=S)N2)cc1OCC`, the “activity change, negative = inhibition” value was inactive: 80.7%. `Clc1ccc2c(c1)N=C(N1CCNCC1)c1ccccc1N2` was tested, and the “activity change, negative = inhibition” value was inactive: 410% [at 56.9 µM]. With `CCOC(=O)N/N=C/c1ccccc1F` the “activity change, negative = inhibition” value was inactive: 59.6%. With `O=C(Nc1ccc2nsnc2c1)C1CC1` the “activity change, negative = inhibition” value was inactive: 60.5%. In the case of `Nc1ncnc2c1ncn2C1OC(CO)C(O)C1O` (configuration not stated), the “activity change, negative = inhibition” value is reported as inactive: 6.18%. With `O=C(Nc1cccnc1)c1cc(-c2cccc(Cl)c2)on1` the “activity change, negative = inhibition” value was inactive: -3.94%. With `COc1ccc(-c2nn(C)c3sc(C(=O)NCCN(C)C)cc23)cc1OC` the “activity change, negative = inhibition” value was inactive: -24.5%. `C[C@@H](NC(=O)[C@@H]1Cc2ccccc2CN1)C(=O)NCC1CCCO1` (some centres not stated) was tested, and the “activity change, negative = inhibition” value was inactive: 54.8%. With `CCOc1cccc(C(=O)NC(c2ccccc2)C(C)C)c1` (configuration not stated) the “activity change, negative = inhibition” value was inactive: 60.4%. For `COc1cc2c(CCNC(C)=O)c[nH]c2cc1O`, the “activity change, negative = inhibition” value was inactive: -0.522%.

From PubChem BioAssay AID504845 (National Center for Advancing Translational Sciences (NCATS), 2011)
% is set by controls: 0 for no effect and ±100 for the full control effect; potency is the fitted concentration of half-maximal effect.
Note: nearly all actives have a fitted effect of over 75% in size.
